Measured values from the RNAGym collection of RNA variant scans (doi:10.1073/pnas.2313332121).
This sample is rich in variants without activity.

B1: TPR 5TU (parent)
chain: GGAUCUUCUCGAUCUAACAAAAAAGACAAAUCUGCCACAAAGCUUGAGAGCAUCUUCGGAUGCAGAGGCGGCAGCCUUCGGUGGCGCGAUAGCGCCAACGUUCUCAACUAUGACACGCAAAACGCGUGCUCCGUUGAAUGGAGUUUAUCAUG

Variants of: B1
Test: polymerase ribozyme fitness, log enrichment relative to wild type (log ratio); higher = more active; in vitro selection for triplet polymerase activity
How it was run: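 Only genotypes with ≥10 input reads and ≥1 read per output were kept after Illumina sequencing of input and output libraries. These libraries were PCR-built, transcribed mutants of each subunit of a heterodimeric triplet polymerase ribozyme, each put through one triplicate in vitro selection round with frozen incubation at −7 °C, gel excision of extended constructs, streptavidin-bead capture and RT-PCR. Fitness is a logarithmic ratio of genotype enrichment to wild-type enrichment, from inverse-variance-weighted replicate averages, with the logarithm in base 2.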
With A24U C57U A89U G92C U127C C131G the “polymerase ribozyme fitness (log ratio)” value was ≤ -4.2.
With G25A U56G G88C U134A the “polymerase ribozyme fitness (log ratio)” value was ≤ -4.2.
In the case of A24C G86U U90A U101A A106G A113U A120U G126A, the “polymerase ribozyme fitness (log ratio)” value is reported as ≤ -4.2.
With A24C A49C G81A G124U the “polymerase ribozyme fitness (log ratio)” value was ≤ -4.2.
With A26C C63U A64G G83A A91G C129G U139C G141C G143U the “polymerase ribozyme fitness (log ratio)” value was ≤ -4.2.
In the case of A24C G42C G92U C125G, the “polymerase ribozyme fitness (log ratio)” value is reported as ≤ -4.2.
In the case of G25C A40G A49G C51U A89G C96U, the “polymerase ribozyme fitness (log ratio)” value is reported as ≤ -4.2.
In the case of A23U U44A U45C C95U C105G A106C C123U A137G, the “polymerase ribozyme fitness (log ratio)” value is reported as ≤ -4.2.
With A24U C43G U56G A73G the “polymerase ribozyme fitness (log ratio)” value was ≤ -4.2.
With G25C A28C C38U A52C G84A U139A the “polymerase ribozyme fitness (log ratio)” value was ≤ -4.2.
With A24C G68U C75G C76G A110G A121U the “polymerase ribozyme fitness (log ratio)” value was ≤ -4.2.
With A24C C27A G42A C69U G71U U146A the “polymerase ribozyme fitness (log ratio)” value was ≤ -4.2.
With G25C U55G U56A G62C A73U C79G C93G C103A the “polymerase ribozyme fitness (log ratio)” value was ≤ -4.2.
With A24G G25C A49U G84A U102G the “polymerase ribozyme fitness (log ratio)” value was ≤ -4.2.
With A24U C72A G94C A107G C116G the “polymerase ribozyme fitness (log ratio)” value was ≤ -4.2.
In the case of A26C G34C A52C C75A G80C, the “polymerase ribozyme fitness (log ratio)” value is reported as ≤ -4.2.
With A24U C96G the “polymerase ribozyme fitness (log ratio)” value was -0.301.
With A24U C51U G59C G83A G84U C131U the “polymerase ribozyme fitness (log ratio)” value was -3.74.
For A24U U55G C85U U139C, the “polymerase ribozyme fitness (log ratio)” value was ≤ -4.2.
For G25U C32U G67A C96A U139C, the “polymerase ribozyme fitness (log ratio)” value was ≤ -4.2.
For G25U C32G G67C U90C G94U U151A, the “polymerase ribozyme fitness (log ratio)” value was ≤ -4.2.
In the case of G25U A52G G74A G88A G140A, the “polymerase ribozyme fitness (log ratio)” value is reported as ≤ -4.2.
In the case of A24C G67C G92U C99U U109G A110U, the “polymerase ribozyme fitness (log ratio)” value is reported as ≤ -4.2.
For A24C C27A A30G U90A G117U A121G, the “polymerase ribozyme fitness (log ratio)” value was ≤ -4.2.
With A24U C85G C105G A107U U111A A115U C132G the “polymerase ribozyme fitness (log ratio)” value was ≤ -4.2.
In the case of A24C A39G A47U U55G G92C, the “polymerase ribozyme fitness (log ratio)” value is reported as ≤ -4.2.
With G25U C132U the “polymerase ribozyme fitness (log ratio)” value was -2.32.
With A24G A26C U56G C72U C108G C129A G140C U146C the “polymerase ribozyme fitness (log ratio)” value was ≤ -4.2.
For A24C A29C G100U U109G A120G, the “polymerase ribozyme fitness (log ratio)” value was ≤ -4.2.
With A26C A30C G68A G86U G88C A138C the “polymerase ribozyme fitness (log ratio)” value was ≤ -4.2.
For A24C U56C G88C A89C U127A, the “polymerase ribozyme fitness (log ratio)” value was ≤ -4.2.
With A24U G46A G68A C79A G84C C87U U134G the “polymerase ribozyme fitness (log ratio)” value was ≤ -4.2.
For G25U A49U U55A A91U, the “polymerase ribozyme fitness (log ratio)” value was ≤ -4.2.
With A26C C32A G84U A98C C123A the “polymerase ribozyme fitness (log ratio)” value was ≤ -4.2.
In the case of A24G G42C G59U C96A C99A C132U, the “polymerase ribozyme fitness (log ratio)” value is reported as ≤ -4.2.
With A24U U45G A106G A120U A121G A122G G143C the “polymerase ribozyme fitness (log ratio)” value was ≤ -4.2.
With A26C C27A G46U G58U C85U C105G the “polymerase ribozyme fitness (log ratio)” value was ≤ -4.2.
With G25U C57A U90G A91G C95A C105G C125U the “polymerase ribozyme fitness (log ratio)” value was ≤ -4.2.
For A24G A39G G67U G83A C85A U104G C105U G136A, the “polymerase ribozyme fitness (log ratio)” value was ≤ -4.2.
For A24U A29U G86U A137U G141A, the “polymerase ribozyme fitness (log ratio)” value was ≤ -4.2.
For A24U U44A C79G G92A C114U U148G, the “polymerase ribozyme fitness (log ratio)” value was ≤ -4.2.
For A24U C43U G81U G86A A150G, the “polymerase ribozyme fitness (log ratio)” value was ≤ -4.2.
For A24U C43G U55A A60G G88A U90G, the “polymerase ribozyme fitness (log ratio)” value was ≤ -4.2.
For A26C U44A A73U G152A, the “polymerase ribozyme fitness (log ratio)” value was ≤ -4.2.
For A24C C93U C103G, the “polymerase ribozyme fitness (log ratio)” value was ≤ -4.2.
In the case of G25U C76A G92U G133A G140A, the “polymerase ribozyme fitness (log ratio)” value is reported as ≤ -4.2.
For A24U A30C C93G C118A, the “polymerase ribozyme fitness (log ratio)” value was ≤ -4.2.
For A24U A41C A49G U61C C108U U146A, the “polymerase ribozyme fitness (log ratio)” value was ≤ -4.2.
In the case of G25U A26C A41U G68C C87U C95G C96U G100A U151A, the “polymerase ribozyme fitness (log ratio)” value is reported as ≤ -4.2.
For A24C G50U U55C C72U C76U A110U U146A, the “polymerase ribozyme fitness (log ratio)” value was ≤ -4.2.
With A26C G83A G86A A98G the “polymerase ribozyme fitness (log ratio)” value was ≤ -4.2.
In the case of A24G A30U U31C U101G, the “polymerase ribozyme fitness (log ratio)” value is reported as -3.98.
With G25C C63U A66C A73G G83A A107G A150U the “polymerase ribozyme fitness (log ratio)” value was ≤ -4.2.
In the case of A24U G25C A28G A30G A49U G83A C87A, the “polymerase ribozyme fitness (log ratio)” value is reported as ≤ -4.2.
With A26C A107G A122G G133U U139C A147C the “polymerase ribozyme fitness (log ratio)” value was ≤ -4.2.
With A24U U33C A37U U44A U56A G58C A60G U61A U102C A122U the “polymerase ribozyme fitness (log ratio)” value was ≤ -4.2.
In the case of A24C G84U C114G, the “polymerase ribozyme fitness (log ratio)” value is reported as ≤ -4.2.
For A24C C76G A106G A122G G140U, the “polymerase ribozyme fitness (log ratio)” value was ≤ -4.2.
With A24U A49C G59C C79A C108G the “polymerase ribozyme fitness (log ratio)” value was ≤ -4.2.
For A24U A37C C132U A137G, the “polymerase ribozyme fitness (log ratio)” value was ≤ -4.2.
With A24G A30G A47U A52C A60C C76A G100A C114A C118G G140A the “polymerase ribozyme fitness (log ratio)” value was ≤ -4.2.
For G25C G62U C87A A137C, the “polymerase ribozyme fitness (log ratio)” value was ≤ -4.2.
For A26C G50U U56A A60C C149G, the “polymerase ribozyme fitness (log ratio)” value was ≤ -4.2.
In the case of A24U G68C G83U A107C, the “polymerase ribozyme fitness (log ratio)” value is reported as ≤ -4.2.
In the case of A26C G42C U56G C96A C118U U139C A147U, the “polymerase ribozyme fitness (log ratio)” value is reported as ≤ -4.2.
In the case of A24U A28U C35U G46U A98U C114U A119G U135C, the “polymerase ribozyme fitness (log ratio)” value is reported as ≤ -4.2.
For A26C A47C U77C U102C G117C, the “polymerase ribozyme fitness (log ratio)” value was ≤ -4.2.
In the case of A24C A49C G84A U109G G133A U144A, the “polymerase ribozyme fitness (log ratio)” value is reported as ≤ -4.2.
For A24G A29U U31G U90C G141C, the “polymerase ribozyme fitness (log ratio)” value was ≤ -4.2.
With G25U A66U C93U G94U C125A G126U the “polymerase ribozyme fitness (log ratio)” value was ≤ -4.2.
In the case of G25C A52U A91U A98G, the “polymerase ribozyme fitness (log ratio)” value is reported as ≤ -4.2.
For A24U U61A C93A C116G, the “polymerase ribozyme fitness (log ratio)” value was -4.17.
In the case of A24U G68A, the “polymerase ribozyme fitness (log ratio)” value is reported as -3.78.
With A24U G68C the “polymerase ribozyme fitness (log ratio)” value was ≤ -4.2.
With G25C G68A the “polymerase ribozyme fitness (log ratio)” value was ≤ -4.2.
With G25U A39C G70U C85A C116G the “polymerase ribozyme fitness (log ratio)” value was ≤ -4.2.
With G25C A49U U55A G81A G94U U104G A121C A137G U151A the “polymerase ribozyme fitness (log ratio)” value was ≤ -4.2.
With A24U A28U C43A A49G G62C C87G G124U the “polymerase ribozyme fitness (log ratio)” value was ≤ -4.2.
For A24C A60G G62C G86A, the “polymerase ribozyme fitness (log ratio)” value was ≤ -4.2.
With A24C G48C G81U G94A the “polymerase ribozyme fitness (log ratio)” value was ≤ -4.2.
For A23U U44A G48U C76G A89G C131A U135G, the “polymerase ribozyme fitness (log ratio)” value was ≤ -4.2.
In the case of A26C C57G G80A, the “polymerase ribozyme fitness (log ratio)” value is reported as -4.09.
In the case of G25C A91C A137C, the “polymerase ribozyme fitness (log ratio)” value is reported as ≤ -4.2.
